Out of some 310,000 compounds screened, about 2,200 (0.71%) showed an effect of 50% or more. Effects have a minus sign here. Some of the results follow.
Target: human ether-à-go-go-related gene (hERG) potassium channel (human, UniProt Q12809)
Assay: primary screen, population patch clamp on CHO cells stably expressing hERG

Sequence of human ether-à-go-go-related gene (hERG) potassium channel (Q12809 whole entry, looked up): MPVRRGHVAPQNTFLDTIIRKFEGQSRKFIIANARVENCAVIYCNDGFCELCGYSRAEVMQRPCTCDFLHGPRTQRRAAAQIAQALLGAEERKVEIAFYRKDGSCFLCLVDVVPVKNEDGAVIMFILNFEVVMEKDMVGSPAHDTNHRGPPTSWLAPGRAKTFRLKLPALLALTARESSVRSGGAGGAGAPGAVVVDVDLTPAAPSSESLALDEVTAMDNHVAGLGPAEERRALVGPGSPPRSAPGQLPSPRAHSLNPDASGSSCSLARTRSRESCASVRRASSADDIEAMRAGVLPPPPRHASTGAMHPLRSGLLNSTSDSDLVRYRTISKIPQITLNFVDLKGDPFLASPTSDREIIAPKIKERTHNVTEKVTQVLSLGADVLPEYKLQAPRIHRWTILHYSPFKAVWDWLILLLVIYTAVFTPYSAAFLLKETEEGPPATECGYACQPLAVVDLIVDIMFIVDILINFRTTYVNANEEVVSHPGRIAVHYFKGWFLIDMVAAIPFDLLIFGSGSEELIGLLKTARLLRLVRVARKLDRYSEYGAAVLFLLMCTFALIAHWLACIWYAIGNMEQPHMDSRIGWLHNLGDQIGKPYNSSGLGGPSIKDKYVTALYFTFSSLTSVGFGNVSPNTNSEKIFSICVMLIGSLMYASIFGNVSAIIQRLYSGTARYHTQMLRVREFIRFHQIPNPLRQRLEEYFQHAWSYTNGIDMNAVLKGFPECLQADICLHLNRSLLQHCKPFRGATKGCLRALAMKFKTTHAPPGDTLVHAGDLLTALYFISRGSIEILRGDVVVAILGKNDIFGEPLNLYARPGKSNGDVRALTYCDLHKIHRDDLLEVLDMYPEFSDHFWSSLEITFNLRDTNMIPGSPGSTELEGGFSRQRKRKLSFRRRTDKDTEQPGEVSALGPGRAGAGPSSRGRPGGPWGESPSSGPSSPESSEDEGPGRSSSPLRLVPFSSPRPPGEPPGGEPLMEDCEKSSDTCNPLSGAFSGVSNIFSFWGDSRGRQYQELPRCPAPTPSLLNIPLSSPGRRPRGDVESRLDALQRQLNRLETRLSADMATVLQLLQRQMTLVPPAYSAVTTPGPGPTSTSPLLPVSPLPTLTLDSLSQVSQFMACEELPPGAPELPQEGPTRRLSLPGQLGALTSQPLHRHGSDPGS

SMILES	hERG current change (%, negative = inhibition) at 1uM [%]
CCOc1cc(CNCCSc2nnnn2C)cc(Br)c1OCc1ccc(F)cc1.Cl	10.5
COc1ccc(NC(=O)CSc2nnc(C3CC3)n2N)cc1	5.82
O=C(Cc1ccc2c(c1)OCCO2)Nc1ccc(Cl)c(S(=O)(=O)N2CCOCC2)c1	3.77
O=C(NCc1cccs1)C1CCCN(S(=O)(=O)c2ccc3c(c2)OCO3)C1 (centres unmarked)	-7.74
Cc1ccc(-c2nc(CS(=O)CC(=O)N3CCN(c4ccc(F)cc4)CC3)c(C)o2)cc1 (centres unmarked)	6.1
Cc1cccn2c(=O)c(/C=C(\C#N)C(=O)NC3CCS(=O)(=O)C3)c(N3CCC(C(N)=O)CC3)nc12 (centres unmarked)	11.4
Cc1cc(Br)ccc1SCC(=O)OCC(=O)NCc1ccc2c(c1)OCO2	7.04
COc1cc(/C=N/NC(=O)C2CCN(CC(O)COCc3ccccc3)CC2)ccc1O (centres unmarked)	-63.6
CCN(CC)c1ccc(Nc2nc(-c3cccnc3)cs2)cc1	13.9
CCCn1c(CC)nc([N+](=O)[O-])c1Sc1ccc(C)cc1	8.74
Nc1ccc(C(CC(=O)O)n2cccc2)cc1 (centres unmarked)	14.2
O=C(Cn1cncn1)c1ccccc1Br	16.7
N#Cc1nc(-c2ccccc2F)oc1NCCN1CCOCC1	11.2
C=CCSc1nc2sc3c(c2c(=O)n1-c1ccc(C)cc1)CCN(C)C3	16.3
O=C(NCc1cccnc1)c1c[nH]c2cc3c(cc2c1=O)OCCO3	9.5
COc1cc2c(cc1OC)CN(C(=O)C1CCCN(C(=O)c3ccc(Cl)cc3)C1)CC2 (centres unmarked)	2.58
CCC(=NCCC(c1ccccc1)c1ccccc1)c1c(O)[nH]c(=O)[nH]c1=O	-0.349
O=C(COC(=O)c1ccco1)Nc1ccc2c(c1)OCO2	2.4
CC(=O)c1cc2c(C)c(C(=O)c3ccccc3)oc2cc1O	3.85
COc1ccc(-c2nc(N3CCN(C)CC3)sc2-c2ccc(OC)cc2)cc1	-0.55
CCn1cc(Br)c(C(=O)Nc2ccc(F)c(Cl)c2)n1	0.368
O=C1NC2(CCCC2)Oc2ccccc21	14.2

SMILES	hERG current change (%, negative = inhibition) at 1uM [%]
COc1ccccc1C1=NOC(Cn2c(NCCOCCO)nc3c2c(=O)n(C)c(=O)n3C)C1 (centres unmarked)	2.8
CCC(=O)N(Cc1cc(=O)[nH]c2ccccc12)c1ccccc1C	0.489
NS(=O)(=O)c1ccc(CNC(=O)c2cnccn2)cc1	12.4
N#Cc1ccc(NC(=O)C2=COCCO2)cc1	6.18
COC(=O)C1=C(c2cc3ccccc3s2)C[C@@H]2CC[C@H]1N2C(=O)NCc1ccc(F)cc1	9.18
COC(=O)c1ccc(COc2ccc3ccc(=O)oc3c2)o1	6.21
CCSc1nnc(NC(=O)C(C)(C(F)(F)F)C(F)(F)F)s1	6.21
O=S(=O)(c1ccc(SCCOc2cccc(Br)c2)nc1)N1CCCC1	14.3
CC(C)CN(C(=O)Cn1c(=O)cnc2ccccc21)C1CCS(=O)(=O)C1 (centres unmarked)	13.2
CCCCCSc1nc2c(c(=O)[nH]c(=O)n2C)n1CC	15.7
COc1ccc(Nc2nc(-c3sc(C)nc3C)cs2)c(OC)c1	16.3
O=C(CN1CCN(c2ccccc2O)CC1)Nc1ccc2c(c1)OCCCO2	5.05
O=C(CCSCCC(=O)NCc1ccco1)NCc1ccco1	8.63
CC(=O)N(C)c1ccc(OCC(O)Cn2c(C)nc3ccccc32)cc1 (centres unmarked)	8.46
O=[N+]([O-])c1cccc(NC(=S)Nc2nc(-c3ccccc3Cl)cs2)c1	8.57
CSCCC(NS(=O)(=O)c1ccc(C)cc1)C(=O)NNC(=O)c1csc(N2CCOCC2)n1 (centres unmarked)	32.2
Fc1ccc(CN2CCC(Cc3ccccc3)CC2)cc1F	11.8
C/C(CCN1CCc2nc(-c3ccccc3)c(-c3ccccc3)cc2C1)=N\OC[C@@H](C)[C@H](OCc1ccccc1)C(C)C	22.8
Cc1cccc(N(CC(=O)Nc2c(C)n(C)n(-c3ccccc3)c2=O)S(C)(=O)=O)c1	0.336
Cc1cccc(C2c3[nH]c4ccccc4c3CCN2C(=O)CN2CCOC2=O)n1 (centres unmarked)	3.13
COc1ccccc1NC(=O)c1ccc(NS(C)(=O)=O)cc1	-1.18
c1ccc(-c2[nH]ncc2-c2nc3ccccc3[nH]2)cc1	3.96

Source: publication PMC4336329 (PLoS ONE, 2015)
